Test results as given in publication PMC9911399, “Two distinct binding modes provide the RNA-binding protein RbFox with extraordinary sequence specificity”.
Numbering of substitutions follows the chain as printed; changes in the protein carry UniProt numbers. The list shows a part of the results.

T1: RBFOX1 RRM (Homo sapiens, UniProt Q9NWB1 109-208)
T1 sequence: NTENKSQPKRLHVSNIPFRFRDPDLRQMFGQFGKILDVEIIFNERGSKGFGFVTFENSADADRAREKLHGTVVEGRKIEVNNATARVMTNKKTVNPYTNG

B1: ACUAGUA (DNA:RNA)
RNA: GGGAGACCGGAAUUCAGAUUGUCCACUAGUAUUAAAUCCCGUCGUAGCCACCA
DNA 1: CAATCTGAATTCCGGTCTCCC
DNA 2: TGGTGGCTACGACGGGATT
B2: UUACCUA (DNA:RNA)
RNA: B1 RNA with A25U, C26U, U27A, A28C, G29C
DNA 1: CAATCTGAATTCCGGTCTCCC
DNA 2: TGGTGGCTACGACGGGATT
B3: GGAAACC (DNA:RNA)
RNA: B1 RNA with A25G, C26G, U27A, G29A, U30C, A31C
DNA 1: CAATCTGAATTCCGGTCTCCC
DNA 2: TGGTGGCTACGACGGGATT
B4: AGGUAGG (DNA:RNA)
RNA: B1 RNA with C26G, U27G, A28U, G29A, U30G, A31G
DNA 1: CAATCTGAATTCCGGTCTCCC
DNA 2: TGGTGGCTACGACGGGATT
B5: CGGGCUC (DNA:RNA)
RNA: B1 RNA with A25C, C26G, U27G, A28G, G29C, A31C
DNA 1: CAATCTGAATTCCGGTCTCCC
DNA 2: TGGTGGCTACGACGGGATT
B6: UGAGGGC (DNA:RNA)
RNA: B1 RNA with A25U, C26G, U27A, A28G, U30G, A31C
DNA 1: CAATCTGAATTCCGGTCTCCC
DNA 2: TGGTGGCTACGACGGGATT
B7: UCAGCAG (DNA:RNA)
RNA: B1 RNA with A25U, U27A, A28G, G29C, U30A, A31G
DNA 1: CAATCTGAATTCCGGTCTCCC
DNA 2: TGGTGGCTACGACGGGATT
B8: GACUGUA (DNA:RNA)
RNA: B1 RNA with A25G, C26A, U27C, A28U
DNA 1: CAATCTGAATTCCGGTCTCCC
DNA 2: TGGTGGCTACGACGGGATT
B9: GAUCCAA (DNA:RNA)
RNA: B1 RNA with A25G, C26A, A28C, G29C, U30A
DNA 1: CAATCTGAATTCCGGTCTCCC
DNA 2: TGGTGGCTACGACGGGATT
B10: ACCGCAC (DNA:RNA)
RNA: B1 RNA with U27C, A28G, G29C, U30A, A31C
DNA 1: CAATCTGAATTCCGGTCTCCC
DNA 2: TGGTGGCTACGACGGGATT
B11: UUAAAGU (DNA:RNA)
RNA: B1 RNA with A25U, C26U, U27A, G29A, U30G, A31U
DNA 1: CAATCTGAATTCCGGTCTCCC
DNA 2: TGGTGGCTACGACGGGATT
B12: GUGUGAU (DNA:RNA)
RNA: B1 RNA with A25G, C26U, U27G, A28U, U30A, A31U
DNA 1: CAATCTGAATTCCGGTCTCCC
DNA 2: TGGTGGCTACGACGGGATT
B13: CUUGUGU (DNA:RNA)
RNA: B1 RNA with A25C, C26U, A28G, G29U, U30G, A31U
DNA 1: CAATCTGAATTCCGGTCTCCC
DNA 2: TGGTGGCTACGACGGGATT
B14: GCCGCCA (DNA:RNA)
RNA: B1 RNA with A25G, U27C, A28G, G29C, U30C
DNA 1: CAATCTGAATTCCGGTCTCCC
DNA 2: TGGTGGCTACGACGGGATT
B15: UGCACCC (DNA:RNA)
RNA: B1 RNA with A25U, C26G, U27C, G29C, U30C, A31C
DNA 1: CAATCTGAATTCCGGTCTCCC
DNA 2: TGGTGGCTACGACGGGATT
B16: GGGGGCG (DNA:RNA)
RNA: B1 RNA with A25G, C26G, U27G, A28G, U30C, A31G
DNA 1: CAATCTGAATTCCGGTCTCCC
DNA 2: TGGTGGCTACGACGGGATT
B17: GACACCU (DNA:RNA)
RNA: B1 RNA with A25G, C26A, U27C, G29C, U30C, A31U
DNA 1: CAATCTGAATTCCGGTCTCCC
DNA 2: TGGTGGCTACGACGGGATT
B18: CAGCUUC (DNA:RNA)
RNA: B1 RNA with A25C, C26A, U27G, A28C, G29U, A31C
DNA 1: CAATCTGAATTCCGGTCTCCC
DNA 2: TGGTGGCTACGACGGGATT
B19: GUCCCUU (DNA:RNA)
RNA: B1 RNA with A25G, C26U, U27C, A28C, G29C, A31U
DNA 1: CAATCTGAATTCCGGTCTCCC
DNA 2: TGGTGGCTACGACGGGATT
B20: GCGUUAU (DNA:RNA)
RNA: B1 RNA with A25G, U27G, A28U, G29U, U30A, A31U
DNA 1: CAATCTGAATTCCGGTCTCCC
DNA 2: TGGTGGCTACGACGGGATT
B21: GAAGCAG (DNA:RNA)
RNA: GGGAGACCGGAAUUCAGAUUGUCCGAAGCAGUUAAAUCCCGUCGUAGCCACCA
DNA 1: CAATCTGAATTCCGGTCTCCC
DNA 2: TGGTGGCTACGACGGGATT
B22: GUGCACA (DNA:RNA)
RNA: B1 RNA with A25G, C26U, U27G, A28C, G29A, U30C
DNA 1: CAATCTGAATTCCGGTCTCCC
DNA 2: TGGTGGCTACGACGGGATT
B23: GGGUAUC (DNA:RNA)
RNA: B1 RNA with A25G, C26G, U27G, A28U, G29A, A31C
DNA 1: CAATCTGAATTCCGGTCTCCC
DNA 2: TGGTGGCTACGACGGGATT
B24: GGUUCUG (DNA:RNA)
RNA: B21 RNA with A26G, A27U, G28U, A30U
DNA 1: CAATCTGAATTCCGGTCTCCC
DNA 2: TGGTGGCTACGACGGGATT
B25: UAUCUAC (DNA:RNA)
RNA: B21 RNA with G25U, A27U, G28C, C29U, G31C
DNA 1: CAATCTGAATTCCGGTCTCCC
DNA 2: TGGTGGCTACGACGGGATT
B26: CUAAGAA (DNA:RNA)
RNA: B1 RNA with A25C, C26U, U27A, U30A
DNA 1: CAATCTGAATTCCGGTCTCCC
DNA 2: TGGTGGCTACGACGGGATT
B27: UUAACGC (DNA:RNA)
RNA: B21 RNA with G25U, A26U, G28A, A30G, G31C
DNA 1: CAATCTGAATTCCGGTCTCCC
DNA 2: TGGTGGCTACGACGGGATT
B28: UUACCGG (DNA:RNA)
RNA: B21 RNA with G25U, A26U, G28C, A30G
DNA 1: CAATCTGAATTCCGGTCTCCC
DNA 2: TGGTGGCTACGACGGGATT
B29: AUUAACC (DNA:RNA)
RNA: B1 RNA with C26U, G29A, U30C, A31C
DNA 1: CAATCTGAATTCCGGTCTCCC
DNA 2: TGGTGGCTACGACGGGATT
B30: CCUCAAC (DNA:RNA)
RNA: B1 RNA with A25C, A28C, G29A, U30A, A31C
DNA 1: CAATCTGAATTCCGGTCTCCC
DNA 2: TGGTGGCTACGACGGGATT
B31: ACUCCGG (DNA:RNA)
RNA: B1 RNA with A28C, G29C, U30G, A31G
DNA 1: CAATCTGAATTCCGGTCTCCC
DNA 2: TGGTGGCTACGACGGGATT

What follows are binders tested against T1, RBFOX1 RRM (assay: EMSA; HiTS-Eq, 1 nM pool, 10 min; buffer printed only for the single-RNA assays: 10 mM Tris pH 7.5, 150 mM NaCl, 3.4 mM EDTA, 0.001% NP-40, 30 C). Settings: tags: His6 N-terminal (pET28a); label: 5' 32P.
How it was run: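 A pool of RNA with 7 randomized nucleotides, 5′-radiolabelled and with DNA-annealed flanks, was equilibrated at 1 nM for 10 min in 50 µL with purified RbFox RRM, wild type or mutant, across increasing protein concentrations. Free RNA was separated by 8% native PAGE, excised, reverse-transcribed, barcoded by PCR and sequenced. Relative association constants were obtained from read-count changes of each RNA species versus the control reaction and normalised to the cognate motif.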

Binder	binding signal
B1	0.00584 KA relative to UGCAUGU
B2	0.0018 KA relative to UGCAUGU
B3	0.00863 KA relative to UGCAUGU
B4	0.015 KA relative to UGCAUGU
B5	0.0209 KA relative to UGCAUGU
B6	0.00686 KA relative to UGCAUGU
B7	0.00796 KA relative to UGCAUGU
B8	0.0131 KA relative to UGCAUGU
B9	0.00466 KA relative to UGCAUGU
B10	0.00343 KA relative to UGCAUGU
B11	0.00914 KA relative to UGCAUGU
B12	0.0151 KA relative to UGCAUGU
B13	0.0213 KA relative to UGCAUGU
B14	0.00445 KA relative to UGCAUGU
B15	0.0142 KA relative to UGCAUGU
B16	0.022 KA relative to UGCAUGU

Binder	binding signal
B17	0.0027 KA relative to UGCAUGU
B18	0.0104 KA relative to UGCAUGU
B19	0.00613 KA relative to UGCAUGU
B20	0.00645 KA relative to UGCAUGU
B21	0.013 KA relative to UGCAUGU
B22	0.0205 KA relative to UGCAUGU
B23	0.0144 KA relative to UGCAUGU
B24	0.0284 KA relative to UGCAUGU
B25	0.00975 KA relative to UGCAUGU
B26	0.00541 KA relative to UGCAUGU
B27	0.00855 KA relative to UGCAUGU
B28	0.00324 KA relative to UGCAUGU
B29	0.000422 KA relative to UGCAUGU
B30	0.0015 KA relative to UGCAUGU
B31	0.00568 KA relative to UGCAUGU
